About 65 (0.1%) of roughly 45,000 compounds were called active. The call rests on the fitted dose curve; in most records, active means well fitted activation curve with a large enough effect; inconclusive means small, poorly fitted or top-dose-only effect; inactive means no such curve, though single readings can be large or run the other way. The list shows a part of the results.
The compounds below were run against Galactocerebrosidase (Homo sapiens) (UniProt P54803) (assay: A Novel Cell-Based Assay to Identify Small Molecules for B -Galactocerebrosidase). Conditions: 145M-Twi-hGALC-G270D cells (Twitcher mouse brain line with human GALC G270D), HMU-beta-Gal fluorescence, 48 h; series mostly up to 57.5 µM; activation: at the top concentration.
Sequence of UniProt P54803 (P54803 whole entry, looked up): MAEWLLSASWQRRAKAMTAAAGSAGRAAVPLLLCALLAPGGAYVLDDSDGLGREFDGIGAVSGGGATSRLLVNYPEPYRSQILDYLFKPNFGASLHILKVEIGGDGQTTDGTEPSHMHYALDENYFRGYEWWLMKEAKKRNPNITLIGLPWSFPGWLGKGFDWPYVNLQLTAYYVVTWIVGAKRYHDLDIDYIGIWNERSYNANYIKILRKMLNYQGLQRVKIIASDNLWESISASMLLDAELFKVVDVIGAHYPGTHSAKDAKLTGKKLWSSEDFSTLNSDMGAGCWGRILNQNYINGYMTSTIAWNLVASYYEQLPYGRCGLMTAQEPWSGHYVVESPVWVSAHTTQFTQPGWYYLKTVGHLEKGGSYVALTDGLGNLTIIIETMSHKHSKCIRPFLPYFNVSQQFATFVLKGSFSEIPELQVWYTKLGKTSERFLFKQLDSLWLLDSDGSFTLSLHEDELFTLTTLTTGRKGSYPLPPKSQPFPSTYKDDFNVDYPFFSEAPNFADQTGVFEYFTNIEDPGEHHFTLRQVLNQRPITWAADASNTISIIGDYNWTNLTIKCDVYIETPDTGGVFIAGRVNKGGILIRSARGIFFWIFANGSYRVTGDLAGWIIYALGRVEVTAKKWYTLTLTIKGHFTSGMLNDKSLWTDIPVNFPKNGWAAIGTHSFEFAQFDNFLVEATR
How it was run: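 Fluorescence readout: HMU-β-gal cleavage by mutant GALC (0.1 mM final, citrate/phosphate pH 5.2 with 1 mg/mL taurocholate), stopped with carbonate/bicarbonate plus Triton X-100. Cells: murine Twitcher 145M-Twi expressing human G270D GALC; qHTS for activators.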
Further: 0% is about no effect; nearly all actives have a fitted effect of over 65% in size.

activation, inactive:
Cc1ccc(CSC2=Nc3ccccc3C3=NC(CC(=O)NC4CCCCC4)C(=O)N23)cc1 (centres undefined) -9.34%
CCCN(CCC)S(=O)(=O)c1ccc2c(c1)N(CC(=O)NC(C)c1ccccc1)C(=O)CS2 (centres undefined) -8.8%
COc1ccc(CNC(=O)c2cc(Nc3ccc(C)cc3C)nc3ccccc23)cc1 -10.4%
Cc1ccc(NC(=O)C(=O)c2cc(C)n(-c3ccc(F)cc3)c2C)cc1C -8.46%
CCOc1ccc(NC(=O)C2CCCN(S(=O)(=O)c3ccc4[nH]c(=O)ccc4c3)C2)cc1 (centres undefined) -1.53%
COc1ccccc1N1CCN(C(=O)CSc2nc3ccccc3nc2Cc2ccccc2)CC1 -15.9%
COc1cccc(-n2ccn(CC(=O)c3ccc(F)cc3)c(=O)c2=O)c1 -23.9%
CC(=O)c1ccc(N2C(=O)N(CC(=O)c3ccc(C)cc3)c3ccccc3S2(=O)=O)cc1 -3.49%
CCN(c1cccc(C)c1)S(=O)(=O)c1nnc(NC(=O)c2ccccc2Cl)s1 -10.4%
Cc1ccc2nc(-c3ccc(NC(=O)COc4ccccc4)cc3)sc2c1 -4.67%
COc1ccccc1N1CCN(C(=O)c2cc(-c3ccc(F)cc3)on2)CC1 -3.53%
Cc1ccc(OCCn2nnc3sc4c(c3c2=O)CCC(C)C4)cc1 (centres undefined) -6%
CCc1c(-c2ccccc2)nc2ccccc2c1C(=O)NCc1ccc(C)cc1 -6.49%
CN(C1CCCCC1)S(=O)(=O)c1ccc2c(c1)c(=O)c(C(=O)N1CCN(c3ccccc3F)CC1)cn2C -16.1%
CCOc1ccc(C(=O)N2CCC(c3noc(-c4ccc(S(=O)(=O)N5CCCC5)cc4)n3)CC2)cc1 2.47%
Cc1cc(C)cc(NS(=O)(=O)c2ccc3[nH]cc(C(=O)NCc4ccccc4Cl)c(=O)c3c2)c1 2.18%
O=C(CSc1nnc(-c2ccc([N+](=O)[O-])cc2)o1)Nc1ccccc1 -13%
Cc1ccc(-c2nc(Cn3c(=O)cc(-c4ccccc4)c4c(C)nn(C)c43)c(C)o2)cc1 -20.1%
COc1cc(NC(=O)Cn2c(=O)n(Cc3ccco3)c(=O)c3oc4ccccc4c32)cc(OC)c1 -1.87%
CSc1cccc(NS(=O)(=O)c2cn(C)c(C)n2)c1 -21.8%
Cn1cnc(S(=O)(=O)N2CCC(C(=O)N3CCN(c4ccccc4F)CC3)CC2)c1 -15.4%
CCOc1ccc(NC(=O)c2cc(=O)c3ccc(C)c(C)c3o2)cc1 -14.2%
O=C(Nc1ccc(Br)cc1F)N1CCC2(CC1)Oc1ccccc1C(=O)N2Cc1ccccc1F -6.71%
CCN(c1ccccc1)c1nnc(NC(=O)Nc2ccc(Br)cc2F)s1 -18.6%
O=C1CSC2(C(=O)N(Cc3ccccc3)c3ccccc32)N1c1ccc(Cl)cc1 (centres undefined) -8.61%
COc1ccc2occ(CC(=O)Nc3ccc(S(=O)(=O)Nc4nc(C)cc(C)n4)cc3)c2c1 -13%
COc1ccc(C2C(C(=O)Nc3ccc(C)cc3C)=C(C)Nc3nc4ccccc4n32)c(OC)c1 (centres undefined) -4.61%
CCOc1ccc2c(c1)NC(c1cccs1)=NC(c1ccc(F)cc1)=N2 -11.2%
O=C(CN1C(=O)COc2ccc(S(=O)(=O)Nc3ccccc3)cc21)Nc1cccc(Cl)c1 -11.8%
COc1cccc2c1Oc1ncccc1N(C(=O)CCC(=O)NCc1ccccc1Cl)C2 -6.09%
COC(=O)c1ccc(Cn2nnc3c(=O)[nH]c(C4CCCN(S(=O)(=O)c5cccc(Cl)c5)C4)nc32)cc1 (centres undefined) -8.32%
COC(=O)c1cc(NC(=O)Cn2nc(-c3ccc(C)c(C)c3)ccc2=O)cc(C(=O)OC)c1 -18.6%
CCC(C)NC(=O)C1=CC(c2ccc3c(c2)OCO3)=NS(=O)(=O)N1C (centres undefined) -8.88%
CC(C)(C)c1ccc(C(=O)N2CCCCC2CCN2CCCCC2)cc1 (centres undefined) -10%
CC(=O)c1ccc(NC(=O)CC(c2cccs2)N2Cc3ccccc3C2=O)cc1 (centres undefined) -17.9%
COc1ccc(Cc2nc3ccccc3n2Cc2ccccc2F)cc1 -4.56%
CCN(C(=O)Cn1cnc2sc(C)c(S(=O)(=O)N3CCN(c4ncccn4)CC3)c2c1=O)c1ccccc1F -13.3%
CCOc1ccc(-c2cc(-c3nc(-c4ccc(OC)c(OC)c4)no3)[nH]n2)cc1 -17.8%
Cc1ccccc1CSc1ncc(CO)n1Cc1ccc(F)cc1 -12.7%
COc1ccc(-c2nnc(C3CCN(S(=O)(=O)c4ccc(C)c(C)c4)CC3)o2)cc1 -0.43%
Cc1ccc(-n2ncc(C(=O)N3CCN(c4ccc(Cl)cc4)CC3)c2C2CCN(C(=O)OC(C)(C)C)CC2)c(C)c1 -15.8%
CCOC(=O)c1ccc(NC(=O)c2ccc(=O)n(Cc3cccc(C)c3)c2)cc1 -31.2%
CC(O)CNc1nc2c(c(=O)n(Cc3ccc(Cl)cc3)c(=O)n2C)n1C (centres undefined) 6.52%
COc1ccc(CCNC(=O)CCc2c(C)c3cc4c(C)coc4c(C)c3oc2=O)cc1OC 6%
COc1ccc(-c2cn3cccnc3n2)cc1NC(=O)c1cc(C)cc(C)c1 -14.6%
Cc1cc(Cl)ccc1OCC(=O)N(Cc1ccco1)Cc1ccco1 1.99%
CCC1CN(C(=O)Nc2ccc(C)c(F)c2)c2ccccc2S1 (centres undefined) -5.84%
Cc1cc2c(cc1S(=O)(=O)CCC(=O)NCCc1ccccc1)OCC(=O)N2 3.86%
CC(C)(C)C(=O)NC1(C(F)(F)F)C(=O)Nc2c1c(=O)[nH]c(=O)n2-c1ccccc1 (centres undefined) -13.6%
CCOc1ccc(-n2nc3cc(C)c(NC(=O)c4cc(OCC)c(OCC)c(OCC)c4)cc3n2)cc1 -13.1%
Cc1nnc(N2CCC(C(=O)NCCc3ccccc3)CC2)c2nn(-c3ccc(Cl)cc3)c(C)c12 -4.01%
COc1cc(OC)c(NS(=O)(=O)c2cc(-c3cnc(C4CC4)o3)ccc2C)cc1Cl -8.06%
CCOc1ccc(-c2nnc(SCC(=O)NCc3ccccc3)o2)cc1 -4.77%
O=C1CN(C(=O)c2ccc(S(=O)(=O)N3CCCC3)cc2)C(c2ccccc2)c2cc(Br)ccc2N1 (centres undefined) -15%
Cc1ccc(NC(=O)CN2CCSc3ccc(S(=O)(=O)N4CCCC4)cc32)cc1C -39%
Cc1ccc(-n2ncc3c(Nc4cccc(Cl)c4)ncnc32)c(C)c1 -13.9%
O=C(Cn1nnnc1-c1ccccc1F)Nc1ccc(OC(F)(F)F)cc1 4.68%
CCOC(=O)c1c(C)n(-c2ccc(OC)cc2)c2ccc(OC(=O)COc3ccccc3)cc12 -14.7%
COc1ccc(CNC(=O)CCc2c(C)nc3c(c(C)nn3-c3ccccc3)c2C)cc1 -17.4%
